About 290 (0.32%) of roughly 91,000 compounds were called active. The shares of active, inactive and inconclusive entries below differ from those in the screen. Calls come from the whole dose curve; as a rule, active = well fitted inhibition curve with a large enough effect; inconclusive = small, poorly fitted or top-dose-only effect; inactive = no such curve, though single readings can be large or run the other way. A potency beside an inconclusive call is a rough fit, not a confirmed value.
These molecules were tested against Single-stranded DNA cytosine deaminase (Homo sapiens) (UniProt Q9GZX7) (assay: Primary qHTS assay for inhibitors of Activation Induced Cytidine Deaminase (AID): AID signal). Settings: AID deamination FRET fluorescence, UDG-coupled, 4 h; activity change, negative = inhibition: at 115 µM (top of the series).
UniProt Q9GZX7, sequence (Q9GZX7 whole entry, looked up): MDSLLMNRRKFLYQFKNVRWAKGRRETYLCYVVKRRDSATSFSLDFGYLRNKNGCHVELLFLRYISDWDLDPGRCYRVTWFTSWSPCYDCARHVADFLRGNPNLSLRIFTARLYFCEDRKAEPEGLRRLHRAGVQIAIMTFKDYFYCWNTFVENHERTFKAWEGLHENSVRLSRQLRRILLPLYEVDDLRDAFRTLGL
% is set by controls: 0 for no effect and ±100 for the full control effect; potency is the fitted concentration of half-maximal effect; tags give direction and shape of the fitted curve.
Note: nearly all actives have a fitted effect of over 25% in size.

Compound	Potency	activity change, negative = inhibition
CC(C)(C)C(=O)Nc1ccc2nc(SCc3ccccc3)sc2c1	inconclusive: 25.1 µM [inhibitor, full curve, poor fit]	
O=C(CCc1ncc(-c2ccccc2F)o1)N1CCN(S(=O)(=O)c2ccc(F)cc2F)CC1		inactive: -4%
CN(C)c1oc(-c2ccco2)nc1S(=O)(=O)c1ccc(Cl)cc1		inactive: -3.09%
CCc1ccc(OCc2nnc(SCc3ccc(C(C)(C)C)cc3)n2CC(C)C)cc1		inactive: -17.3%
COC(=O)C1=C(C)N(C)C(=S)NC1c1ccc(C(C)C)cc1 (stereo not drawn)	inconclusive: 39.8 µM [inhibitor, single point]	
Cc1cccc(Cn2c(NCCc3ccccc3)nc3c2c(=O)n(C)c(=O)n3C)c1		inactive: -6.25%
N#C/C(=C/c1ccc(-c2ccccc2)cc1)c1cccc([N+](=O)[O-])c1		inactive: -3.46%
COc1cccc(C(=O)Nc2nc3nc(C)c(Cc4ccccc4)c(=O)n3[nH]2)c1	inconclusive: 56.2 µM [inhibitor, partial curve, poor fit]	
CCOc1ccc(CNC(=O)Cn2nc(N3CCN(c4ccccc4)CC3)ccc2=O)cc1	inconclusive: 89.1 µM [inhibitor, single point]	
COCCNc1nc2c(c(=O)n(C)c(=O)n2C)n1Cc1cc(OC)ccc1Cl		inactive: 1.12%
O=C(NCc1ccc(Cl)cc1)C1CCN(C(=O)c2cnn(-c3ccccc3)c2-n2cccc2)CC1	inconclusive: 56.2 µM [inhibitor, partial curve, poor fit]	
COc1ccccc1CNC(=O)CSc1nc2nc(C)c(Cc3ccccc3C)c(C)n2n1	inconclusive: 50.1 µM [inhibitor, partial curve, poor fit]	
Cc1cccc(-c2nnc(SCC(=O)Nc3ccc(C)c(C)c3)o2)c1	inconclusive: 20 µM [inhibitor, single point]	
Cc1ccc2oc(C(=O)NCC(c3ccc(Cl)cc3)N3CCOCC3)c(C)c2c1 (stereo not drawn)	inconclusive: 50.1 µM [inhibitor, partial curve, poor fit]	
Cc1ccc(C(=O)c2cn(Cc3ccccc3)c3ccccc3c2=O)cc1	inconclusive: 56.2 µM [inhibitor, partial curve, poor fit]	
Cc1[nH]c2ccccc2c1CCNC(=S)NC(C)(C)C	inconclusive: 28.2 µM [inhibitor, partial curve, poor fit]	
O=C(CSc1nc(=O)n(Cc2ccccn2)c2c1CCC2)Nc1cccc(Cl)c1	inconclusive: 56.2 µM [inhibitor, partial curve, poor fit]	
N=C(N)c1ccc(OCc2ccncc2)cc1		inactive: 3.71%
Cc1ccc2c(CC(=O)Nc3ccc(S(=O)(=O)N4CCCC(C)C4)cc3)coc2c1 (stereo not drawn)	inconclusive: 35.5 µM [inhibitor, full curve]	
CCOc1ccc(C(=O)Nc2ccc(C(=O)OCc3cc(=O)n4c(C)csc4n3)cc2)cc1	inconclusive: 12.6 µM [inhibitor, partial curve, poor fit]	
Oc1c(C(c2ccc(Cl)cc2Cl)N2CCN(Cc3ccccc3)CC2)sc2nc(-c3ccco3)nn12 (stereo not drawn)		inactive: 1.57%

Compound	Potency	activity change, negative = inhibition
Cc1cccc(NC(=O)CSc2nc3nccnc3c(=O)n2CCc2ccccc2)c1	inconclusive: 56.2 µM [inhibitor, partial curve]	
CCCCCC[N+](C)(C)CCCCCCCCCC[N+](C)(C)CCCCCC		inactive: -7.81%
O=C(O)CCC(=O)N1N=C(c2ccsc2)CC1c1ccc(Br)cc1 (stereo not drawn)		inactive: -4.89%
CCc1cccc(C)c1Nc1c(-c2ccc(N(C)C)cc2)nc2cnccn12	inconclusive: 50.1 µM [inhibitor, partial curve, poor fit]	
Cc1ccc(-c2nc(CS(=O)(=O)CC(=O)N3CCN(c4ccccc4)CC3)c(C)o2)cc1	inconclusive: 12.6 µM [inhibitor, full curve]	
Cc1cccc(NC(=O)CSc2nc3ccc(NC(=O)CCc4ccccc4)cc3s2)c1		inactive: 8.68%
O=S1(=O)c2ccccc2N(Cc2ccc(F)cc2)c2ccccc21	inconclusive: 17.8 µM [inhibitor, partial curve, poor fit]	
COc1ccccc1N1CCN(Cc2nc(-c3cc(OC)c(OC)c(OC)c3)no2)CC1	inconclusive: 89.1 µM [inhibitor, partial curve, poor fit]	
Cc1ccc2ncc(C(=O)c3ccc(C)c(C)c3)c(S(=O)(=O)c3ccccc3)c2c1	inconclusive: 20 µM [inhibitor, partial curve, poor fit]	
CC1CCN(c2nc3ccccc3nc2C(F)(F)F)CC1	inconclusive: 89.1 µM [inhibitor, single point]	
Cc1c(C(=O)Nc2cccc(C#N)c2)sc2nc3n(c(=O)c12)CCCCC3	inconclusive: 35.5 µM [inhibitor, partial curve, poor fit]	
CCc1ccc(S(=O)(=O)c2nnn3c2nc(N2CCC(C(N)=O)CC2)c2cc(Cl)ccc23)cc1	active: 25.1 µM	
CCCNC(=O)C1CCC(Cn2c(=O)c3sccc3n(CC(=O)N3CCCC3)c2=O)CC1 (stereo not drawn)		inactive: 16.9%
COc1cccc(Oc2coc3cc(OC(=O)c4ccc([N+](=O)[O-])cc4)ccc3c2=O)c1		inactive: -12.2%
COC(=O)c1ccc(NC(=O)NC(C)c2c(-n3cccc3)sc(C)c2C)cc1 (stereo not drawn)	inconclusive: 89.1 µM [inhibitor, partial curve, poor fit]	
CCCc1cc(C(=O)Oc2ccc(NC(C)=O)cc2)sc1C	inconclusive: 28.2 µM [inhibitor, single point]	
O=C(/C=C/c1ccco1)Oc1ccc(Sc2ccc(OC(=O)/C=C/c3ccco3)cc2)cc1		inactive: -24.9%
CC(C)c1ccc2oc(-c3ccc(Cl)c(NC(=O)Cc4ccccc4)c3)nc2c1	inconclusive: 31.6 µM [inhibitor, partial curve, poor fit]	
CCC1CCc2c(sc(NC(=O)C3c4ccccc4Oc4ccccc43)c2C(=O)OC)C1 (stereo not drawn)	inconclusive: 39.8 µM [inhibitor, single point]	
COc1ccc(OC)c(CCNC(=O)c2nn(C)c3c2CSc2ccccc2-3)c1	inconclusive: 15.8 µM [inhibitor, full curve, poor fit]	
CCCn1cc(S(=O)(=O)c2ccc(CC)cc2)c(=O)c2cc(F)c(N3CCN(C)CC3)cc21	inconclusive: 50.1 µM [inhibitor, partial curve, poor fit]	

Compound	Potency	activity change, negative = inhibition
CC(C)c1ccc(C2=NC(c3ccncc3)=Nc3ccc(F)cc3N2)cc1	inconclusive: 89.1 µM [inhibitor, single point]	
Cc1ccc(NC(=O)c2ccc(N(Cc3ccccc3)S(C)(=O)=O)cc2)cc1	inconclusive: 56.2 µM [inhibitor, partial curve, poor fit]	
CCOC(=O)c1ccc(N2C(=O)c3n[nH]c(-c4cccs4)c3C2c2ccc(OC)cc2OC)cc1 (stereo not drawn)	inconclusive: 39.8 µM [inhibitor, single point]	
Cc1nnc(N2CCN(c3cccc(C(F)(F)F)c3)CC2)c2c1nnn2Cc1ccccc1	inconclusive: 39.8 µM [inhibitor, full curve, poor fit]	
Cc1ccc(CNC(=O)c2c[nH]n3c(=O)c(Cc4ccc(F)cc4Cl)c(C)nc23)cc1	active: 70.8 µM	
COc1ccc(N2CCN(c3oc(/C=C/c4ccccc4OC)nc3C#N)CC2)cc1	inconclusive: 14.1 µM [inhibitor, partial curve, poor fit]	
CN(C)C(=O)c1ccc2oc(CN3CCN(C(=O)Nc4ccc(F)cc4F)CC3)nc2c1		inactive: -7.23%
Cc1cccc(N(CC(=O)N(C)Cc2ccccc2)S(=O)(=O)c2ccccc2)c1C	active: 35.5 µM	
Cc1cccc(OCC(=O)N(Cc2ccc(N(C)C)cc2)Cc2ccco2)c1C	inconclusive: 44.7 µM [inhibitor, partial curve, poor fit]	
COc1cccc(NC(=O)CSC2=Nc3ccccc3C3=NC(CC(=O)NCc4ccccc4OC)C(=O)N23)c1 (stereo not drawn)	inconclusive: 44.7 µM [inhibitor, partial curve, poor fit]	
CCOC(=O)N1CCN(S(=O)(=O)N2CCCC(C(=O)NCc3ccc(OC)cc3OC)C2)CC1 (stereo not drawn)		inactive: 0.564%
O=C(NCCc1ccc(Cl)cc1)c1ccc(CSCc2ccc(Cl)cc2)o1	inconclusive: 20 µM [inhibitor, partial curve, poor fit]	
Clc1ccccc1-c1nnc(SCc2nc(-c3ccccc3)no2)n1-c1ccccc1	inconclusive: 50.1 µM [inhibitor, partial curve, poor fit]	
CCn1c(=O)c2cc(C(=O)NCCCN(C)Cc3ccccc3)sc2c2ccccc21	inconclusive: 50.1 µM [inhibitor, partial curve, poor fit]	
O=C(O)CCn1cnc2onc(-c3ccccc3Cl)c2c1=O	inconclusive: 44.7 µM [inhibitor, full curve, poor fit]	
CCOC(=O)c1ccc(NC(=O)CCn2cnnn2)cc1		inactive: 0.636%
O=C(Nc1cc(C(F)(F)F)ccc1Cl)/C(=C/c1ccc(F)cc1)c1ccc(-c2ccccc2)cc1		inactive: -3.65%
COc1ccccc1CNC(=O)CCC1N=C2c3ccccc3N=C(SCc3ccccc3Cl)N2C1=O (stereo not drawn)	inconclusive: 15.8 µM [inhibitor, full curve, poor fit]	
CCSc1nc(-c2ccc(Cl)cc2)nc2c1Cc1c(CO)cnc(C)c1O2	inconclusive: 35.5 µM [inhibitor, partial curve, poor fit]	
CCc1ccc(NC(=O)Cn2c(=O)oc3cc(S(=O)(=O)NCc4ccccc4)ccc32)cc1		inactive: -1.19%
CC1=C(C(=O)Nc2ccc(C)cc2C)C(c2cccn2C)n2ncnc2N1 (stereo not drawn)	inconclusive: 28.2 µM [inhibitor, single point]	
